Reference: patent US11773160 (ANAVEON, dated 2023)

T1: His-tagged recombinant CD25 (human, UniProt P01589 22-213, limits assumed)
T1 construct: Captured via TrisNTA Biotin on SA chips; also called IL-2 receptor alpha; IL-2Rα; not shown: His tag
T1 sequence (looked up): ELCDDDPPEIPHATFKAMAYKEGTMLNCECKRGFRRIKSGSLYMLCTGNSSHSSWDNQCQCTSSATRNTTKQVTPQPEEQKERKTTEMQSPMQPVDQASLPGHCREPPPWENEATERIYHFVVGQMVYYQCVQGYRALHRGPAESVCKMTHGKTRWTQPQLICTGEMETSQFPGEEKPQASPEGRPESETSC

T2: IL-2R on murine splenocytes (C57BL/6)
T2 sequence (P01590 whole entry, looked up): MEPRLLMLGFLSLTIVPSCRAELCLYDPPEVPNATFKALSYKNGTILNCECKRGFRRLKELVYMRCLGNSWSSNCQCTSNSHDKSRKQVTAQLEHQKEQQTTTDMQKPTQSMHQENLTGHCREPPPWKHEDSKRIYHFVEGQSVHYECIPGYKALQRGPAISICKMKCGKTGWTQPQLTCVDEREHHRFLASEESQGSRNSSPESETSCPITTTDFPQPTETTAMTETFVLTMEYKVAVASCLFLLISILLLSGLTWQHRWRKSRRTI
T2 sequence (P16297 whole entry, looked up): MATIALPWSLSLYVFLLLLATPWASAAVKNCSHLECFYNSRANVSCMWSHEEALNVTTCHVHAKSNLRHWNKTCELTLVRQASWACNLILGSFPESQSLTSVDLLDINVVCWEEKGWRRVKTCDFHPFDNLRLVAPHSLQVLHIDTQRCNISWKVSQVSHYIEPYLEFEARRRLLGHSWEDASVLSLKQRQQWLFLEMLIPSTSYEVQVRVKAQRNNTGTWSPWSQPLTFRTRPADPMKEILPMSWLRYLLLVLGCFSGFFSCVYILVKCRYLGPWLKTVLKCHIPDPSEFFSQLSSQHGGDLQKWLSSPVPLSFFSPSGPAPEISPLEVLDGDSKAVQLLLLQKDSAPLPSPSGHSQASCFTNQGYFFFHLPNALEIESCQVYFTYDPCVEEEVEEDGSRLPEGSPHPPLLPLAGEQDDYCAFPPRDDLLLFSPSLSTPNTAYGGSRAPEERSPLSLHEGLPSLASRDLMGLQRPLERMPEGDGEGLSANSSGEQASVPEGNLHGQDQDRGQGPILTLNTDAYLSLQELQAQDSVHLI
T2 sequence (P34902 whole entry, looked up): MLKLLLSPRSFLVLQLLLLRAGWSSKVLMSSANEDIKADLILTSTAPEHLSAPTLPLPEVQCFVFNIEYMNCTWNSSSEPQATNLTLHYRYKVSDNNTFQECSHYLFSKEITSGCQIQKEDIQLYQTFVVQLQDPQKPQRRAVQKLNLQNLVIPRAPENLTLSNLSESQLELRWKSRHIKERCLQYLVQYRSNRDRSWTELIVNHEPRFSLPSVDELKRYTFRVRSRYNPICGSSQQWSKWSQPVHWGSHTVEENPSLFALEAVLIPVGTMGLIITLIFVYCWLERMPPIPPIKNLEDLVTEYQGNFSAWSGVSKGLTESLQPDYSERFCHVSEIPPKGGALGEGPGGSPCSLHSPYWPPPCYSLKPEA

T3: trimeric IL-2 receptor on HEK-Blue IL-2 reporter cells (UniProt P01589 22-272; P14784 27-551; P31785 23-369, limits assumed)
T3 sequence (looked up) 1: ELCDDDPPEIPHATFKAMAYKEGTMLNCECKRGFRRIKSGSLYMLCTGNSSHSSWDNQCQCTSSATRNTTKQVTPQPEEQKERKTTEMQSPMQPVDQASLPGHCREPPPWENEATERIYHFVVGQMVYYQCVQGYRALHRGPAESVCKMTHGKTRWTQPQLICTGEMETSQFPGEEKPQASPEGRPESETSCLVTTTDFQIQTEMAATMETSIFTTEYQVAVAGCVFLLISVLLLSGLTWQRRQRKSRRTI
T3 sequence (looked up) 2: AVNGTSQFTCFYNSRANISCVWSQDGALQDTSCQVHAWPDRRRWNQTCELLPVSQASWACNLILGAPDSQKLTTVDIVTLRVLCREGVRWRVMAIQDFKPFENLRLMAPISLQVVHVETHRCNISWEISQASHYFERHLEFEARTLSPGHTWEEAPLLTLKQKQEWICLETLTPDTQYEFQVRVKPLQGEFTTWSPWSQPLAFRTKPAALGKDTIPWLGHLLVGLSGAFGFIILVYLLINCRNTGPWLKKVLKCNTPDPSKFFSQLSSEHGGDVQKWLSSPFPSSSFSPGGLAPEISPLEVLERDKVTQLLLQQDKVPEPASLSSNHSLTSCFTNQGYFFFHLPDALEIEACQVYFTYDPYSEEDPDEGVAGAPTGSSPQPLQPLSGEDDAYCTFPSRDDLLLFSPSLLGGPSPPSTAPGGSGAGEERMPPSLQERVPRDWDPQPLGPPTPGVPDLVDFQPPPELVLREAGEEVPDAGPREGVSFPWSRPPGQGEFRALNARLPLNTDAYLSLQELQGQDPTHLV
T3 sequence (looked up) 3: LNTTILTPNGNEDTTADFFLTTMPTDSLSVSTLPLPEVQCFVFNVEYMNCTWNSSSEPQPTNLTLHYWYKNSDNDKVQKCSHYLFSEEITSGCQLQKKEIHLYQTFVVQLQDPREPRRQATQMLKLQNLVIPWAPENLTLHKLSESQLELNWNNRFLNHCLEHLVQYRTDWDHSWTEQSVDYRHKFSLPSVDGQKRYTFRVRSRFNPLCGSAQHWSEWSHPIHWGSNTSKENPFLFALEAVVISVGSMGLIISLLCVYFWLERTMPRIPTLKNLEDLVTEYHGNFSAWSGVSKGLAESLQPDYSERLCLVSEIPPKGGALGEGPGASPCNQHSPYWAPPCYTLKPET


How the values were obtained:
[1] = target: T1, His-tagged recombinant CD25; experiment: SPR (BIAcore 3000), His-tagged CD25 captured, kinetic titration of fusion protein
Method: HEK-Blue™ IL-2 reporter cells (Invivogen) were incubated with a dilution series (1:3 dilutions from 0.56 nM) of antibody-IL-2 fusion protein in growth medium for 20 hours Example 4. IL-2 fusion protein in vitro selectivity Binding affinities to CD25 measured by SPR Binding affinities of the IL-2 fusion protein to the IL-2 receptor CD25 were measured by SPR (BIAcore 3000, GE Healthcare, 33-1140587-3682). His-tagged recombinant CD25 was captured via TrisNTA Biotin on SA chips and Kinetic titration of IL-2 fusion proteins of the present invention was performed reaching concentrations up to 500 nM.

[2] = target: T4, monoclonal anti-human IL-2 antibody 5344 (BD, 555051); experiment: sandwich ELISA, 5344 coated, fusion protein titrated, anti-human IgG-Peroxidase
T4 construct: Coated capture antibody
Method: The antibody-IL-2 fusion proteins were tested on a sandwich ELISA, to assess the correct folding of the IL-2 portion. […] The obtained signals (Absorbance 450-570 nm) were plotted as function of antibody-IL-2 fusion protein concentration (as log value). The $EC50$ values were interpolated fitting the data with GraphPad Prism 8 (Table 6).

[3] = target: monoclonal anti-human IL-2 antibody Nara1; experiment: ELISA, Nara1 coated, fusion protein titrated, anti-human IgG-Peroxidase; lowest concentration with signal at or above the cut point
[4] = target: T2, IL-2R on murine splenocytes (C57BL/6); experiment: cell-based or functional assay
[5] = target: T3, trimeric IL-2 receptor on HEK-Blue IL-2 …; experiment: cell-based or functional assay

| Binder | binding result [1] | EC50 [2] [nM] | Lowest concentration (nM) OD450-570 ≥ CP [3] [nM] | EC50 CD8 cells (nM), pSTAT5 MFI [4] [nM] | EC50 NK cells (nM), pSTAT5 MFI [4] [nM] | EC50 Treg cells (nM), pSTAT5 MFI [4] [nM] | EC50 (M), SEAP of HEK-Blue IL-2 reporter cells [5] [M] |
| --- | --- | --- | --- | --- | --- | --- | --- |
| GYG794 (other, also called IL-2 fusion protein to antibody B, linker 1 2 AA, linker 2 3 AA) heavy: QVQLVESGGGVVQPGRSLRLSCAASGYTFSSYLIEWVRQAPGKGLEWVAVINPGSGGTNYADSVKGRFTISADKSKNTAYLQMNSLRAEDTAVYYCARWRGDGYYAYFDVWGQGTTVTVSSASTKGPSVFPLAPSSKSTSGGTAALGCLVKDYFPEPVTVSWNSGALTSGVHTFPAVLQSSGLYSLSSVVTVPSSSLGTQTYICNVNHKPSNTKVDKRV[omitted - human IgG1 Fc] light: EIVLTQSPATLSVSPGERATLSCRASQSVSYGGNFHLRPRDLISNINVIVLELKGSETTFMCEYADETATIVEFLNRWITFSQSIISTLTPTSSSTKKTQLQLEHLLLDLQMILNGINNYKNPKLTRMLTFKFYMPKKATELKHLQCLEEELKPLEEVLNLAQSKGGGDSYMNWYQQKPGQAPRLLIYAASNLASGIPARFSGSGSGTEFTLTISSLQSEDAAVYYCQQSNEDPYTFGGGTKVEIKRTVAAPSVFIFPPSDEQLKSGTASVVCLLNNFYPREAKVQWKVDNALQSGNSQESVTEQDSKDSTYSLSSTLTLSKADYEKHKVYACEVTHQGLSSPVTKSFNRGEC | no binding (tested: concentrations up to 500 nM) | 0.2 | 0.83 | 18.6 | 1.5 | 4.8 | 3.9e-12 |
| PGO345 (other, also called IL-2 fusion protein to antibody A, linker 1 6 AA, linker 2 7 AA) heavy: EVQLVQSGAEVKKPGESLKISCKGSGYAFTNYLIEWVRQMPGKGLEWMGVINPGSGGTNYNEKFKGQVTISADKSISTAYLQWSSLKASDTAMYYCARWRGEGYYAYFDVWGQGTTVTVSSASTKGPSVFPLAPSSKSTSGGTAALGCLVKDYFPEPVTVSWNSGALTSGVHTFPAVLQSSGLYSLSSVVTVPSSSLGTQTYICNVNHKPSNTKVDKRV[omitted - human IgG1 Fc with changes] light: AIRLTQSPSSFSASTGDRVTITCKASQSVDYGGGGSGNFHLRPRDLISNINVIVLELKGSETTFMCEYADETATIVEFLNRWITFSQSIISTLTPTSSSTKKTQLQLEHLLLDLQMILNGINNYKNPKLTRMLTFKFYMPKKATELKHLQCLEEELKPLEEVLNLAQSKGGGGSGGDSYMNWYQQKPGKAPKLLIYAASNLESGVPSRFSGSGSGTDFTLTISSLQSEDFATYYCQQSNEDPYTFGGGTKVEIKRTVAAPSVFIFPPSDEQLKSGTASVVCLLNNFYPREAKVQWKVDNALQSGNSQESVTEQDSKDSTYSLSSTLTLSKADYEKHKVYACEVTHQGLSSPVTKSFNRGEC | – | 0.16 | 0.83 | 6.6 | 2.3 | 7.6 | 3.2e-12 |
| DRV470 (other, also called IL-2 fusion protein to antibody A, linker 1 13 AA, linker 2 14 AA) heavy: EVQLVQSGAEVKKPGESLKISCKGSGYAFTNYLIEWVRQMPGKGLEWMGVINPGSGGTNYNEKFKGQVTISADKSISTAYLQWSSLKASDTAMYYCARWRGEGYYAYFDVWGQGTTVTVSSASTKGPSVFPLAPSSKSTSGGTAALGCLVKDYFPEPVTVSWNSGALTSGVHTFPAVLQSSGLYSLSSVVTVPSSSLGTQTYICNVNHKPSNTKVDKRV[omitted - human IgG1 Fc with changes] light: AIRLTQSPSSFSASTGDRVTITCKASQSVDYGGGGSGGGGSGGGNFHLRPRDLISNINVIVLELKGSETTFMCEYADETATIVEFLNRWITFSQSIISTLTPTSSSTKKTQLQLEHLLLDLQMILNGINNYKNPKLTRMLTFKFYMPKKATELKHLQCLEEELKPLEEVLNLAQSKGGGGSGGGGSGGGGDSYMNWYQQKPGKAPKLLIYAASNLESGVPSRFSGSGSGTDFTLTISSLQSEDFATYYCQQSNEDPYTFGGGTKVEIKRTVAAPSVFIFPPSDEQLKSGTASVVCLLNNFYPREAKVQWKVDNALQSGNSQESVTEQDSKDSTYSLSSTLTLSKADYEKHKVYACEVTHQGLSSPVTKSFNRGEC | – | 0.1 | 0.83 | 7.9 | 2.4 | 10.3 | 3.61e-12 |
| XUB802 (other, also called IL-2 fusion protein to antibody A, linker 1 19 AA, linker 2 20 AA) heavy: EVQLVQSGAEVKKPGESLKISCKGSGYAFTNYLIEWVRQMPGKGLEWMGVINPGSGGTNYNEKFKGQVTISADKSISTAYLQWSSLKASDTAMYYCARWRGEGYYAYFDVWGQGTTVTVSSASTKGPSVFPLAPSSKSTSGGTAALGCLVKDYFPEPVTVSWNSGALTSGVHTFPAVLQSSGLYSLSSVVTVPSSSLGTQTYICNVNHKPSNTKVDKRV[omitted - human IgG1 Fc with changes] light: AIRLTQSPSSFSASTGDRVTITCKASQSVDYGGGGSGGGGSGGGGSGGGGNFHLRPRDLISNINVIVLELKGSETTFMCEYADETATIVEFLNRWITFSQSIISTLTPTSSSTKKTQLQLEHLLLDLQMILNGINNYKNPKLTRMLTFKFYMPKKATELKHLQCLEEELKPLEEVLNLAQSKGGGGSGGGGSGGGGSGGGGSDSYMNWYQQKPGKAPKLLIYAASNLESGVPSRFSGSGSGTDFTLTISSLQSEDFATYYCQQSNEDPYTFGGGTKVEIKRTVAAPSVFIFPPSDEQLKSGTASVVCLLNNFYPREAKVQWKVDNALQSGNSQESVTEQDSKDSTYSLSSTLTLSKADYEKHKVYACEVTHQGLSSPVTKSFNRGEC | – | 0.15 | 0.28 | 17.1 | 5.8 | 12.1 | 3.32e-12 |
